{"source": "paper PMC6919601", "about": "“Identification of Plasmodium dipeptidyl aminopeptidase allosteric inhibitors by high throughput screening” (PLoS ONE, 2019)", "note": "The campaign covered roughly 110,000 compounds. About 230 (0.21%) showed an effect of 50% or more. Some of the results follow.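 Also: 30 min substrate incubation versus DMSO and 10 µM JCP410 controls.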"}
{"molecular_target": "DPAP1 (Plasmodium falciparum, UniProt Q8IIJ9)", "sequence (Q8IIJ9 whole entry, looked up)": "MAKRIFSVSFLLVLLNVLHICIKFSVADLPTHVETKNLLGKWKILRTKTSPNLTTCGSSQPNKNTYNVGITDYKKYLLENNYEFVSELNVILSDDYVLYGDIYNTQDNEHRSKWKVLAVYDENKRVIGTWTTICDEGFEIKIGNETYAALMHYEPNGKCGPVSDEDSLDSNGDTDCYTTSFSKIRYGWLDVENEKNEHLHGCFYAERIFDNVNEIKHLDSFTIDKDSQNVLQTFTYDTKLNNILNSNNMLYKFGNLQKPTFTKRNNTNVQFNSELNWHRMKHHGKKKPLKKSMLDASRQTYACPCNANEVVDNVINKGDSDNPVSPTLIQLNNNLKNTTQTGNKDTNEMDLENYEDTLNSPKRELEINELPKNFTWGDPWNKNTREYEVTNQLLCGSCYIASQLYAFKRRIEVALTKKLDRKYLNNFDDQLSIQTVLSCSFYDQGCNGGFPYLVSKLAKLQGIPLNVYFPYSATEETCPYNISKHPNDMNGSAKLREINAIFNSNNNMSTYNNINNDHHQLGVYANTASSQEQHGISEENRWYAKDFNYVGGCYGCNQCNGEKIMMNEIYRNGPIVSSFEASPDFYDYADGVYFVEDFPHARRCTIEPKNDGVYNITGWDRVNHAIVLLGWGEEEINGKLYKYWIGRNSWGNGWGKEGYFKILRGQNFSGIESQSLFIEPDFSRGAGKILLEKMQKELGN", "assay": "primary screen, percent inhibition; read by cleavage of a fluorogenic dipeptide substrate; higher = more effect of the substance", "parameters": "species or system P. falciparum D10 trophozoite lysates; single well", "units": {"% Inhibition @ 10 uM": "%"}}
{"molecule": "Cc1cccc(CN2CCN(c3cccc(Cl)c3)CC2)c1", "% Inhibition @ 10 uM": -3.71}
{"molecule": "O=C(NC1CC1)c1cc2nc(-c3ccco3)cc(C(F)(F)Cl)n2n1", "% Inhibition @ 10 uM": -17}
{"molecule": "Cc1ccc(C(C#N)NC(=O)[C@H](CC(C)C)NC(=O)c2ccc(-c3ccccc3)cc2C)o1", "note": "(stereo partly drawn)", "% Inhibition @ 10 uM": 1.71}
{"molecule": "O=C(O)CCN(CCC(=O)O)c1nnc(SCc2ccccc2)s1", "% Inhibition @ 10 uM": 3.27}
{"molecule": "CNS(=O)(=O)c1cn(CC(=O)NCCOC)cc1S(=O)(=O)NC", "% Inhibition @ 10 uM": -5.9}
{"molecule": "N#CCCN1c2ccccc2Sc2ccccc21", "% Inhibition @ 10 uM": -7.14}
{"molecule": "CCOC(=O)c1cc2ccccc2n1C", "% Inhibition @ 10 uM": 4.79}
{"molecule": "CCN(CCN(C)C)Cc1ccc2c(c1)OCCO2", "% Inhibition @ 10 uM": -0.0648}
{"molecule": "Cn1c(=O)[nH]c(=O)c2c1nc(SCCc1ccccc1)n2Cc1ccccc1", "% Inhibition @ 10 uM": -0.968}
{"molecule": "O=C(/C=C/c1ccccc1Cl)NCc1ccccc1", "% Inhibition @ 10 uM": -0.351}
{"molecule": "CCCCN1CN(CCc2ccccc2)CNC1=S", "% Inhibition @ 10 uM": -5.62}
{"molecule": "S=c1nc(-c2ccccc2)n(Cc2ccccc2)c2c1CCCC2", "% Inhibition @ 10 uM": -6.7}
{"molecule": "CCOc1ccc(/C=C2/NC(=O)N(Cc3ccc(F)cc3)C2=O)c(OCC)c1", "% Inhibition @ 10 uM": -0.643}
{"molecule": "Cc1ccccc1CN1CCN(Cc2cccc(F)c2)CC1", "% Inhibition @ 10 uM": 17.7}
{"molecule": "CCOC(=O)c1ccc(OCC2c3cc(OC)c(OC)cc3CCN2C(=O)c2ccc(F)cc2)cc1", "note": "(stereo not drawn)", "% Inhibition @ 10 uM": 10.9}
{"molecule": "COC(=O)c1sc(N2C(=O)c3oc4ccccc4c(=O)c3C2c2ccc(C)o2)nc1C", "note": "(stereo not drawn)", "% Inhibition @ 10 uM": 2.16}
{"molecule": "O=C(NCc1ccc(F)cc1)c1cc(-c2ccc(F)cc2)on1", "% Inhibition @ 10 uM": 0.0654}
{"molecule": "O=C(O)Cn1c(SCC(=O)c2ccc(Br)cc2)nc2ccsc2c1=O", "% Inhibition @ 10 uM": 4.49}
{"molecule": "CCOC(=O)N1CCN(S(=O)(=O)c2c(C)cc(C)cc2C)CC1", "% Inhibition @ 10 uM": 6.11}
{"molecule": "Cc1cc(C)nc(SCC(=O)Nc2ccc(Br)cn2)n1", "% Inhibition @ 10 uM": 2.45}
{"molecule": "O=[N+]([O-])c1ccc(-c2ccc(-c3nc(-c4ccccc4)c(-c4ccccc4)[nH]3)o2)cc1", "% Inhibition @ 10 uM": -0.216}
{"molecule": "Cc1nc(C2CC(=O)OC23CCCCC3)cs1", "note": "(stereo not drawn)", "% Inhibition @ 10 uM": 3.15}
{"molecule": "Oc1ccc(CN2CCCCC2)c2cccnc12", "% Inhibition @ 10 uM": -0.551}
{"molecule": "COc1ccc(-c2cn3nc(N4CCC(C(=O)NCCN5CCCCC5)CC4)sc3n2)cc1", "% Inhibition @ 10 uM": 1.72}
{"molecule": "CCOC(=O)c1c(C)c(C(=O)NC(C)COC)c(C)n1Cc1ccccc1", "note": "(stereo not drawn)", "% Inhibition @ 10 uM": -3.44}
{"molecule": "O=c1oc2ccccc2n1Cc1c(F)cccc1Cl", "% Inhibition @ 10 uM": -0.725}
{"molecule": "COc1ccc2[nH]c3c(=O)n(Cc4ccc(C(=O)N5CCCC5)cc4)c(=S)[nH]c3c2c1", "% Inhibition @ 10 uM": 4.28}
{"molecule": "Cc1ccc(C)c(OCCCN2CCCC2)c1", "% Inhibition @ 10 uM": 1.57}
{"molecule": "CC(C)(C)c1ccc(C(=O)Nc2ncccn2)cc1", "% Inhibition @ 10 uM": 3.66}
{"molecule": "CN(CCNC(=O)c1nn(C)c2c1CSc1ccccc1-2)Cc1ccccc1", "% Inhibition @ 10 uM": -3.51}
{"molecule": "COc1ccc(N/C=C(/C#N)c2nc(-c3ccc(Cl)cc3)cs2)cc1", "% Inhibition @ 10 uM": 2.22}
{"molecule": "O=C1CS(=O)(=O)C(c2ccc(Cl)cc2Cl)N1c1ccc(Br)cc1", "note": "(stereo not drawn)", "% Inhibition @ 10 uM": -5.41}
{"molecule": "COc1ccc2[nH]c3c(c2c1)CC(O)CC3", "note": "(stereo not drawn)", "% Inhibition @ 10 uM": -2.39}
{"molecule": "COc1ccc(S(=O)(=O)N(C)CC(=O)NCCC2=CCCCC2)cc1", "% Inhibition @ 10 uM": -9.72}
{"molecule": "Cc1ccc(NC(=O)c2ccccc2)nc1", "% Inhibition @ 10 uM": 0.145}
{"molecule": "CCOc1ccccc1N1C(=O)C2C3C=CC(C4CC34)C2C1=O", "note": "(stereo not drawn)", "% Inhibition @ 10 uM": 2.67}
{"molecule": "Nc1c(C(=O)NCc2ccc(Cl)cc2)nnn1-c1ccc(OC(F)(F)F)cc1", "% Inhibition @ 10 uM": -1.85}
{"molecule": "O=C(NCC1CCCO1)c1nc(-c2ccc(Cl)cc2)n2c1CCCCC2", "note": "(stereo not drawn)", "% Inhibition @ 10 uM": 0.244}
{"molecule": "CC1(C(=O)O)CCC(C(=O)N2CCc3ccccc32)C1(C)C", "note": "(stereo not drawn)", "% Inhibition @ 10 uM": -7.18}
{"molecule": "COc1ccc(C2(C)N(O)C(C)C(c3ccccc3)=[N+]2[O-])cc1", "note": "(stereo not drawn)", "% Inhibition @ 10 uM": -0.0626}
{"molecule": "COc1ccccc1OCCSc1nc(-c2ccco2)nc2cc(=O)[nH]n12", "% Inhibition @ 10 uM": 2.97}
{"molecule": "O=C(CCN1C(=O)c2cccc3cccc(c23)C1=O)NCC1CCCO1", "note": "(stereo not drawn)", "% Inhibition @ 10 uM": -1.06}
{"molecule": "S=C(c1ccncc1)N1CCOCC1", "% Inhibition @ 10 uM": -3.5}
{"molecule": "O=C(N/C(=C/C=C/c1ccccc1)C(=O)N1CCCCCC1)c1ccccc1", "% Inhibition @ 10 uM": 4.01}
{"molecule": "CC(NC(=O)CSCc1cnn(-c2ccccc2)c1-n1cccc1)c1ccccc1", "note": "(stereo not drawn)", "% Inhibition @ 10 uM": -5.15}
{"molecule": "C/C(=C\\c1ccccc1)CN1CCN(c2ccc(Cl)cc2)CC1", "% Inhibition @ 10 uM": 7.53}
{"molecule": "CCCC1(O)C(C)C(c2ccccc2)NC(c2ccccc2)C1C", "note": "(stereo not drawn)", "% Inhibition @ 10 uM": -4.98}
{"molecule": "CC1CN(S(=O)(=O)c2ccc3c(c2)C(=O)c2ccccc2C3=O)CC(C)O1", "note": "(stereo not drawn)", "% Inhibition @ 10 uM": 14.8}
{"molecule": "COc1cccc(C(=O)N(Cc2nc(-c3ccccc3)no2)C(C)C)c1OC", "% Inhibition @ 10 uM": -1.54}
{"molecule": "CCOc1ccc(CCNC(=O)Cn2ncc3c4cc(C)ccc4nc-3c2O)cc1OCC", "% Inhibition @ 10 uM": 7.12}
{"molecule": "CCC(C)NC(=O)c1ccc(Cl)c(Cl)c1", "note": "(stereo not drawn)", "% Inhibition @ 10 uM": 4.17}
{"molecule": "O=C(O)c1ccc2c(c1)C(=O)N(NC(=O)c1ccncc1)C2=O", "% Inhibition @ 10 uM": 1.64}
{"molecule": "N#CCNC(=O)C(CCc1ccccc1)NC(=O)c1ccc(-c2ccccc2Cl)cc1", "note": "(stereo not drawn)", "% Inhibition @ 10 uM": -0.207}
{"molecule": "CCOc1nc2c(ncn2C)c(=O)n1C", "% Inhibition @ 10 uM": -1.22}
{"molecule": "CNC(=O)/C(=C/c1ccccc1F)NC(=O)c1ccc(C)cc1", "% Inhibition @ 10 uM": -3.26}
{"molecule": "CC1(C)CC(=O)C2=C(C1)OC(N)=C(C#N)C2c1cccc([N+](=O)[O-])c1", "note": "(stereo not drawn)", "% Inhibition @ 10 uM": -1.8}
{"molecule": "CNC(=O)/C(=C\\c1ccc(Br)cc1)NC(=O)c1ccccc1", "% Inhibition @ 10 uM": 2.67}
{"molecule": "COc1ccc(C(=O)Nc2ccc(C#N)cc2)cc1", "% Inhibition @ 10 uM": -2.6}
{"molecule": "CN1CCCN(C2CCC(c3ccccc3)CC2)CC1", "note": "(stereo not drawn)", "% Inhibition @ 10 uM": -5.11}
{"molecule": "N#CC1=C(N)OC2=C(C(=O)CC(c3ccccc3)C2)C1c1ccc(F)cc1", "note": "(stereo not drawn)", "% Inhibition @ 10 uM": 3.54}
{"molecule": "c1ccc2cc(OCCN3CCOCC3)ccc2c1", "% Inhibition @ 10 uM": -7.25}
{"molecule": "OCCC/N=C/c1c(O)n(-c2c(Cl)cccc2Cl)c2ccccc12", "% Inhibition @ 10 uM": -10.4}
{"molecule": "CC1=C(C(=O)OCC2CCCCC2)C(c2ccc(Cl)cc2)NC(=O)N1", "note": "(stereo not drawn)", "% Inhibition @ 10 uM": 3.42}
{"molecule": "CN(C)c1cc(=O)n2c(n1)SCCC2", "% Inhibition @ 10 uM": 0.558}
{"molecule": "O=C(CCc1c[nH]c2ccccc12)N1CCn2c(nc3ccccc32)C1", "% Inhibition @ 10 uM": 5.53}
{"molecule": "CCC(C)NC(=O)C1CCN(C(=O)c2cc3sccc3n2C)CC1", "note": "(stereo not drawn)", "% Inhibition @ 10 uM": -5.19}
